Source: article PMC8119466, “A screen of FDA-approved drugs identifies inhibitors of protein tyrosine phosphatase 4A3 (PTP4A3 or PRL-3)” (Scientific Reports, 2021)
Where a name gives a salt, the structure may show the parent alone.

Columns and labels:
Format in all cases: biochemical
recombinant PRL-3 = biological target: T1, recombinant PRL-3 (Homo sapiens, UniProt O75365); assay: In vitro phosphatase assay (DiFMUP hydrolysis), PRL-3; note: test concentration or dose not given here
T1 construct: 6xHis (N, cleaved yes); made in house; host or cells: E. coli One Shot BL21 Star
T1 sequence (O75365 whole entry): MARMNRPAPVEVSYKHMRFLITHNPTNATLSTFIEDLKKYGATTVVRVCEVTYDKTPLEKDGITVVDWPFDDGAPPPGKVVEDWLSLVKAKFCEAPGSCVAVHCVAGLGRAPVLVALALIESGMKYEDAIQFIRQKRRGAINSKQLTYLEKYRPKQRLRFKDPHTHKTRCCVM

recombinant PRL-2 = biological target: T2, recombinant PRL-2 (Homo sapiens, UniProt Q12974); assay: In vitro phosphatase assay (DiFMUP hydrolysis), PRL-2;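 note: PRL-2 activity read as DiFMUP hydrolysis after 20 min at room temperature with drug, enzyme first pre-reduced at 4 °C for 20 min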
T2 construct: 6xHis (N, cleaved yes); made in house; host or cells: E. coli One Shot BL21 Star
T2 sequence (Q12974 1-167): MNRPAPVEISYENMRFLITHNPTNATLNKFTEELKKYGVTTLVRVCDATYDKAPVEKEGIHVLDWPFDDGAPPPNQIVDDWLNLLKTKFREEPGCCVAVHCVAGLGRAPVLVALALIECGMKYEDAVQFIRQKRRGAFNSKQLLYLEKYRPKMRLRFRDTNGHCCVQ

recombinant PRL-1 = biological target: T3, recombinant PRL-1 (Homo sapiens, UniProt Q93096); assay: In vitro phosphatase assay (DiFMUP hydrolysis), PRL-1; note: test concentration or dose not given here
T3 construct: 6xHis (N, cleaved yes); made in house; host or cells: E. coli One Shot BL21 Star
T3 sequence (Q93096 1-173): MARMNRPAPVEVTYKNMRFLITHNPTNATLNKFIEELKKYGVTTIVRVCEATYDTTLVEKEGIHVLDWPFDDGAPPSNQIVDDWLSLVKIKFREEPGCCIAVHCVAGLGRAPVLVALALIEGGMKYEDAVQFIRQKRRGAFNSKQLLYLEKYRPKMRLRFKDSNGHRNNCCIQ

Structure (SMILES)	% Phosphatase Activity (compared to DMSO) PRL-3 (recombinant PRL-3) [%]	% Phosphatase Activity (compared to DMSO) PRL-2 (recombinant PRL-2) [%]	% Phosphatase Activity (compared to DMSO) PRL-1 (recombinant PRL-1) [%]
Clc1ccc2c(c1)CCc1cccnc1C2=C1CCNCC1 [Desloratadine]	100	124	110
Clc1ccc(CSC(Cn2ccnc2)c2ccc(Cl)cc2Cl)cc1 (stereo not drawn) [Sulconazole Nitrate]	79	110	97
CCCCCCCCCCCCCCCC[n+]1ccccc1 [Cetylpyridinium Chloride]	85	91	97
CC(C)(C)c1ccc(C(=O)CCCN2CCC(OC(c3ccccc3)c3ccccc3)CC2)cc1 [Ebastine]	97	128	115
CCN(CC)CCOC(=O)C1(C2CCCCC2)CCCCC1 [Dicyclomine HCl]	–	90	87
CCN(Cc1ccncc1)C(=O)C(CO)c1ccccc1 (stereo not drawn) [Tropicamide]	–	92	–
Br.CN1[C@@H]2CC[C@H]1C[C@@H](OC(=O)C(O)c1ccccc1)C2 (stereo partly drawn) [Homatropine Bromide]	83	119	109
Cc1ccccc1C(OCCN(C)C)c1ccccc1 (stereo not drawn) [Orphenadrine Citrate]	97	106	92
CN1CCC[C@@H]1CCO[C@](C)(c1ccccc1)c1ccc(Cl)cc1 [Clemastine Fumarate]	112	119	91
CC(C)(C)CC(C)(C)c1ccc(OCCOCC[N+](C)(C)Cc2ccccc2)cc1 [Benzethonium Chloride]	80	103	99
